Laboratory results reported in the supplement of paper PMC11417369.
Some of the results follow.

What follows are sequences tested on PfHDP1 homeodomain (GST-tagged) (assay: gcPBM binding intensity (ln(normalized median fluorescence intensity)); higher = stronger DNA binding).
Outline: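 After 1 h on an Agilent 4 × 180k array of primer-extended double-stranded 36-bp intergenic genomic probes and negative controls, bound GST-tagged P. falciparum DNA-binding domains were detected with Alexa488 anti-GST antibody and scanned at 488 nm. The domains had been expressed in E. coli, and binding took place in 1× PBS with 1% milk, 0.2 mg/ml BSA, 0.5% salmon testes DNA and 0.03% Triton X-100. Binding intensity is the highest Masliner-normalised natural-log median intensity across replicate spots of either probe orientation.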

Sequence | gcPBM binding intensity (ln)
GCCGCACCCAGATACGCACACAAGAAAAAAATATTC [CACACA_site3456] | 7.5
TATGGATAAATAAATACACACATAAATTTAAATATA [CACACA_site1282] | 6.65
TAAAATATAATGATCACACATATAAACAAGTGGGTA [CACACA_site4651] | 6.47
ATTTTTAAATACAGTACACACATGGGTTTAAATTAT [CACACA_site2884] | 6.62
TATTCTAGAATTTTAACACACAAGAATATAAACTTT [CACACA_site6757] | 6.13
GATTATTTTAGAAGTACACACATTTATATATAATAA [CACACA_site5429] | 6.48
TATTTATATTTATATACACACATATATACCTATATA [CACACA_site7820] | 6.58
GGTTATATGATAGGATGTACAATTAAAAGTAAATAT [XGTACX_site5083] | 6.85
TTATTATTCTTAAGGATATAACAAAAAAGAAAAATT [CACACA_negctrl_site1402] | 6.26
TCCTATAAACAAATTTGTACATATAAGAATATATTC [XGTACX_site3892] | 6.71
ATAGTATACAGACACACACACACACGGATATAAATA [CACACA_site6914] | 6.96
AAGTTTAAGAAATAATTCATATTTACTTCCATCCTC [GTGCAC_negctrl_site494] | 6.18
ATATATATATATATATGTACTAAATATTCATCCTTA [XGTACX_site6039] | 9.37
AAATGGAAAAGGTGTACACAAAAAAAAGGGAAAAGC [CACACA_site5331] | 7.17
TTTTTTTTTTTTTTTGCACACACATTGAATTATTAT [CACACA_site198] | 9.13
TACATATAAATATATAAATATAAATAAATAAATAAA [XGTACX_negctrl_site180] | 6.45
TTACCAAAAACCTCAAGTACAAAAAATCCCTAATAT [XGTACX_site2313] | 6.55
CTTTATATATAGTGTACACATTAAACAAATCTCAAT [CACACA_site5845] | 6.78
ATATTTATAATTTTTTGTACACATTTTTTAAAGATA [XGTACX_site1784] | 6.52
TATAAGAGAAGAAGAAAAAAAAGGTTTCTATAGAAA [XGTACX_negctrl_site421] | 6.35
AAGAAGCATAAATGTACACACATATTTATATATTAA [CACACA_site1332] | 6.42
CATATAGTAATATATACACACACTTGTCTTGTAAAA [CACACA_site8238] | 6.54

Sequence | gcPBM binding intensity (ln)
TATATATATATATTATGTACGTATCAGTTTGTATGT [XGTACX_site695] | 8.92
TTATAAATTAGAGGTACACACAAAAAAAAAAAGAAA [CACACA_site6740] | 6.57
CACGACATTAACAATACATGCAGAAAAACAAAAAAT [TGCATGCA_site689] | 7.04
ATTTTTAATATTATTACACACACTAAAAAAAAAAAA [CACACA_site1067] | 6.41
TTGGTACCTATAGATACACACATATATACATATATA [CACACA_site3402] | 6.48
TAAGAGTAGTTATATACACACATGTATATTATAGTT [CACACA_site6815] | 6.41
TATATATGTATATATGGTACAGAATATTCTACATTA [XGTACX_site5077] | 6.62
TACCACATCGGTAAATGTACTTATAAAAAAAAAAAA [XGTACX_site3364] | 6.15
CATCCACATATATGTACACACATATATATATATATA [CACACA_site2964] | 9.46
CAATCATTTTATTGTTGTACAGTAATTATGAATTCA [XGTACX_site7508] | 6.42
AATGGGTTAGCACATACACACCAATATATTATATAT [CACACA_site9011] | 6.87
ATTTATGATATGTAAACATGCATAAAAATTTCAAAA [TGCATGCA_site858] | 6
TATAAACTTAATTTGAGTACTTAATAATAATTTTGT [XGTACX_site3730] | 6.11
AAACAACAAAAATGATATATATAAAATTTATAATAT [XGTACX_negctrl_site185] | 6.42
TATTTAATTATATAAAATTAAATTTTTAATTCTTCC [CACACA_negctrl_site473] | 5.92
TATGGATTACACAATTGTACAAGAAAAATGTAAATA [XGTACX_site4040] | 7.04
ATGCATAAAAGAAATACACACATAAATATATAAATA [CACACA_site2163] | 6.63
TGTCATGATACATACACACACATACACATACACATA [CACACA_site2135] | 7.27
CCCACGTATATTTTGTGTACATAAATAAATAAATAA [XGTACX_site4046] | 7.24
ACATTATATAAATATATACATATATATATATATAAA [GTGCAC_negctrl_site115] | 6.46
TTTGATAAATGATACACACACAATATTTATAAAATA [CACACA_site7040] | 6.93
TCTATTATCCTTTGCACACAAAATAAATGAAAAAAT [CACACA_site3029] | 9.75

Sequence | gcPBM binding intensity (ln)
ATATAAGTTTTTTCTCAAAAAGTATAACGAGCATGA [CACACA_negctrl_site1375] | 7.37
ATGACGTAGTGGTGTACACACATGGTACCTTTATTC [CACACA_site1547] | 7.28
AAAAAAATATTCAAAGCATGCCTATTTACACATATT [TGCATGCA_site806] | 6.4
TCAGAAATATTACAAAGTACATGCAACGAAAATTTC [XGTACX_site5061] | 6.9
ACACAATGTAGTGTATAAATACAATAAAAGGTTGTA [TGCATGCA_negctrl_site251] | 6.51
TCTTATAATTTACCTACACACAGGAAATATATAAAT [CACACA_site294] | 6.4
TGATATTTAAATTTTGCACACGCATATGAAATTAGG [CACACA_site1034] | 10.1
TTTTTTTCATAATATACACACAAAAAAAAAAAAAAA [CACACA_site3224] | 6.38
ATATATATATATATGTGTACATATATATATCATATG [XGTACX_site3126] | 9.23
TATACTCATATATAAACACACAAAAAAAAAAAAAAA [CACACA_site5165] | 6.37
AAAAAAAAAAAAAAAGTGCATTAATAAATTTTAATA | 7.56
ATACGAAAATATTTTGCACACTATAATTATTCATAT [CACACA_site1765] | 10.3
TTTCCCTACCAAAAGTGTACTTATACATATTTTTAT [XGTACX_site5495] | 6.46
ACATATTATTCTTCTTGTACACATAAATTTTATAAA [XGTACX_site299] | 7.19
ACATCTATGTATAATACACACACTAATATATAATTG [CACACA_site5134] | 6.62
TCTTTATATCATCTTTCTAAATATATATATATATAA [CACACA_negctrl_site77] | 6.64
TAATAATAATTAAAATGAGATAAATAAATATATATA [TGCATGCA_negctrl_site322] | 6.3
CTATTAATGTACTCTACACACATATAAGAGGACATT [CACACA_site471] | 6.46
TTATATATTTATAAATGTACGTATAAGAATTTAATT [XGTACX_site8541] | 6.68
AATGTAAAACGAAATGCACACTATGGAAAATATAAA [CACACA_site4559] | 8.85
TATATATTAATATATGCATGTTAATATATTATGAAA [TGCATGCA_site61] | 6.26
TAAAATATATTTTTCTGTACACAAAAATATATTAAA [XGTACX_site2813] | 6.24

Sequence | gcPBM binding intensity (ln)
ACAGTATAAAAATAAGCACACACACTAATATATATT [CACACA_site8212] | 6.71
TAAGTTTGTGCAAGTGGTACATATATATAAATTTAT [XGTACX_site5944] | 8.56
TGATTATAGACACGCGCACACACAACAAAAAAAAAA [CACACA_site9179] | 6.85
TGGATTTTTTGATTTTTGTTTTTCTTCTTTCCCCCC [CACACA_negctrl_site1471] | 7.59
TTTACATAAACTGGTAGTACATAATATGGCTTAAAA [XGTACX_site5002] | 6.26
TTAGCAACTATTACTACACACATTTGTATTTAATTT [CACACA_site4961] | 6.69
AACCAAAATTTTTGTCGTACAAAAGAGCAAATGTAG [XGTACX_site6472] | 7.72
ACGATGTTCATCACTACACACACAAAGAAATATATA [CACACA_site8859] | 6.77
TATAATATTATAGTTTGTACGAAAATAATATATTTA [XGTACX_site8673] | 6.49
AAAAATAAAAATGAGTGTACTTTAAGCCCTACACTT [XGTACX_site828] | 6.51
TTTTACTATGATATTTATATATCTATATATGTATAT [XGTACX_negctrl_site499] | 6.11
AAAAGTGTATGTAGGTGTACTTTTTATTTCTTCTTT [XGTACX_site8819] | 6.16
ATAACAAAATAAAACACACACACAAATGTACCTATA [CACACA_site7190] | 6.71
TAAAGGCAAACAAACACACACACATATATACCTATA [CACACA_site7078] | 6.77
TATTTATAAATATAAACACACAACATTATATGCATA [CACACA_site5748] | 6.7
TATATATATATATATATATATATTAATATATATTAC [XGTACX_negctrl_site103] | 9.55
GATACAAAATGGGGAACACACACATATATATATATA [CACACA_site9278] | 9.09
CAAAATTTATATAATAGTACACATGATCTTTTTTCT [XGTACX_site8956] | 6.45
TATATATATATATAATGTACGAATAGAAAAAAAAAA [XGTACX_site7231] | 8.79
AATGGATTAGCTAGCACACACAAAAAAAAAAAAAAA [CACACA_site3031] | 6.42
TTTTTTTTTTTTTAATGTACCCATGGGCACATAGGT [XGTACX_site486] | 6.38
TAAATATAGGGTAATAGTACATAATTATATTCTTTT [XGTACX_site3883] | 6.28
